Test results as given in ChEMBL document CHEMBL1157539, “Thousands of chemical starting points for antimalarial lead identification” (Nature, 2010).
The full ranking holds about 13,000 compounds; the median of “IFI” is about 4, and the highest 2% start at about 17. The list shows a part of the results.

Test: GSK_TCMDC: Inhibition Frequency Index (IFI). The number of non-kinase HTS assays where a compound showed > 50 % inhibition, expressed as a percentage of the number of such assays in which the compound was tested (-0 is zero)
Type: functional

SMILES | IFI
CN1CCN(c2cc(NC(=O)c3ccc(-c4ccc(C#N)cc4)cc3)ccc2Cl)CC1 | 3.74%
N=C(N)NN=Cc1cc([N+](=O)[O-])ccc1Sc1ccccc1CO | 3.76%
CCOc1ccc(-c2nonc2NC(=O)c2ccccc2)cc1OCC | 0%
COc1cc(CCNc2nc(NCc3cccc4ccccc34)nc(N3CCC(N)CC3)n2)ccc1O | 6.06%
C=CC[C@H](NC(=O)c1ccc(NS(=O)(=O)c2ccc3nc(N)[nH]c(=O)c3c2)cc1)C(=O)OCCCC | 2.86%
Cc1ccc(Nc2nc3cc(Nc4ccnc(Nc5ccc(CS(C)(=O)=O)cc5)n4)ccc3o2)cc1 | 8.89%
Cc1cccc2nc(-c3ccc(-c4cccc(CNCCNC(=O)c5ccnn5C)c4)cc3)[nH]c12 | 3.96%
O=C(NCC1CC1)C1CCN(C(c2ccccc2)c2nc3ccccc3s2)CC1 (configuration not stated) | 0.68%
CCOc1ccc2c(c1)C(C)(c1ccc3c(c1)C(C)CC(C)(C)N3)CC(C)(C)N2 (configuration not stated) | 5.8%
CCCCNCc1ccc(-c2nc(CN(CCCn3ccnc3)C(=O)Nc3ccc(CC)cc3)cs2)cc1 | 6.71%
Cc1nn(-c2ccccc2)nc1C(=O)N(Cc1ccc(-c2ccc(CNCCc3ccc(S(C)(=O)=O)cc3)cn2)cc1)C(C)CN(C)C (configuration not stated) | 6.99%
COc1ccc(Nc2ccnc3cc(Cl)ccc23)cc1OC | 8.33%
COc1ccc(C)cc1NC(=O)CSc1nc2cccnc2n1C1CCCCC1 | 2.13%
CN(C)Cc1c(O)ccc2[nH]c(-c3ccc(OC(F)(F)F)cc3)nc12 | 2.8%
Cc1sc2ncnc(Sc3nnc(N)s3)c2c1C | 5.04%
CC(C)COc1cc(C(=O)Nc2cnc3ccccc3c2)ccc1[N+](=O)[O-] | 3.03%
Cc1cccc2nc(-c3cccc(-c4ccc(CN5CCN(CCO)CC5)cc4)c3)[nH]c12 | 3.92%
COc1ccc(CCN2CCC(Nc3nc4ccccc4n3CCc3ccc(OC)cc3)CC2)cc1 | 6.02%
O=C(N[C@H]1CCN(Cc2ccc(OCCN3CCCC3)c(Cl)c2)C1)c1ccc(Cl)c(Cl)c1 | 4.17%

SMILES | IFI
CCCCOc1c(CCNCCCCNCCc2cc(F)c3ccccc3c2OCCCC)cc(F)c2ccccc12 | 19.6%
CCCCNc1cc(C)nc(NCc2ccccc2)n1 | 9.72%
c1ccc(COc2ccc(Cn3ccc(-c4ccc(-n5ccnc5)cc4)n3)cc2)cc1.c1ccc(COc2ccc(Cn3nccc3-c3ccc(-n4ccnc4)cc3)cc2)cc1 | 2.52%
COc1cccc(CN2CCCN(Cc3cccc(NC(=O)c4ccc(-c5ccccc5)cc4)c3)CC2)c1 | 6.9%
c1ccc(-c2cc(NCCNc3cc(-c4ccccc4)nc4ccccc34)c3ccccc3n2)cc1 | 0%
O=C(Nc1cccc(-c2ccc(-c3nc4cc(C(F)(F)F)ccc4[nH]3)cc2)c1)c1ccncc1 | 7.02%
Cc1[nH]c2ccccc2c1CC1CCN(CC2CCN(C(=O)/C=C/c3ccc(Cl)c(Cl)c3)CC2)CC1 | 1.46%
O=C(/C=C/c1ccc(Cl)c(Cl)c1)NCCCCCN1CCC(NC(=O)Nc2ccc([N+](=O)[O-])cc2)CC1 | 6.62%
N#Cc1ccc(C=CC(=O)NC2CCC(CCN3CCc4ccc(-c5cnccn5)cc4CC3)CC2)cc1 (configuration not stated) | 6.67%
CO/C(=C\C=C\c1cc2cc(Cl)c(Cl)cc2[nH]1)C(=O)NC1CC2CCCC(C1)N2C (configuration not stated) | 13.1%
N=C(NCCCCC1CCCCC1)c1cccc(C(=N)NCCCCC2CCCCC2)n1 | 19.9%
CCCC1N=C(N)N=C(N)N1c1ccc(Cl)cc1 (configuration not stated) | -0%
Cn1nc(C(F)(F)F)cc1-c1ccc(C(=O)Nc2ccc3c(c2)CNCC3(C)C)s1 | 6.25%
O=C(NCC1CCN(Cc2ccc(F)cc2)C1)c1cc(-c2cccc(C(F)(F)F)c2)cs1 (configuration not stated) | 7.55%
CCCCn1c(-c2ccco2)nc2c(c(=O)c3ccccc3n2C)c1=O | 0%
Cc1cc(N)c2cc(NC(=O)/C=C/c3ccc([N+](=O)[O-])cc3)ccc2n1 | 3.47%
N=C(N)Nc1nccc(NCc2ccccc2)n1 | 5.3%
COc1ccc(Nc2ncc(Cl)c(Nc3cccnc3C(N)=O)n2)cc1N1CCN(C)CC1 | 11.5%
CCNc1cc(C(=O)N[C@@H](Cc2ccccc2)[C@H](O)CNC23CCC(CC2)C3)cc(N2CCCCS2(=O)=O)c1 | 2.29%

SMILES | IFI
O=C(Nc1ccccc1)c1nn(CCCN2CCC(N3CCCC3)CC2)cc1-c1ccc(Cl)c(Cl)c1 | 10.1%
CCc1ccc(NC(=O)N(CCCn2ccnc2)Cc2csc(-c3ccc(CNCc4ccccc4)cc3)n2)cc1 | 5.48%
O=C(Cn1c(CCc2cccc(F)c2F)nc(=O)c2ccccc21)N(CCN1CCCCC1)Cc1ccc(-c2ccc(C(F)(F)F)cc2)cc1 | 8.09%
O=C(/C=C/c1ccccc1Cl)NC1CCC(CN2CCC(c3c[nH]c4ccncc34)CC2)CC1 (configuration not stated) | 1.41%
CCNc1cc(C)nc(Nc2ccc(C)cc2)n1 | 4.29%
CC(C)(C)c1ccc(NC(=O)c2ccc(CN3CCCN(CC4CCCCC4)CC3)cc2)cc1 | 13.5%
CNc1ccc(CNCc2ccc(-c3ccc(-c4nc5cc(F)ccc5[nH]4)cc3)cc2)cc1 | 15.8%
CCN(CC)c1ccc(C=CC(=O)NCCN2CCC(N(C)C3CCCCC3C)CC2)cc1 (configuration not stated) | 5%
OCC1CCN(Cc2cccc(-c3cccc(-c4nc5cc(C(F)(F)F)ccc5[nH]4)c3)c2)CC1 | 5.83%
O=S(=O)(c1csc2ccccc12)N(CCC(O)(C(F)(F)F)C(F)(F)F)Cc1cccc(O)c1 | 1.45%
O=C1CCCN1CCCNCc1ccc(-c2cccc(-c3nc4cc(F)ccc4[nH]3)c2)cc1 | 2.94%
CC(C)(C)c1ccc(OCCCON2C(=N)N=C(N)NC2(C)C)c(C(C)(C)C)c1 | 13.3%
COC(=O)c1cccc(CNCc2cccc(-c3cccc(-c4nc5ccccc5[nH]4)c3)c2)c1 | 10.1%
COc1cc2nc(N(C)Cc3cccc(I)c3)nc(N)c2cc1OC | 1.6%
CCCCc1ccc(Cc2cnc3nc(N)nc(N)c3c2C)cc1 | 5.71%
N=c1n(CCN2CCCCC2)c2ccccc2n1CC(=O)c1cccc([N+](=O)[O-])c1 | 1.4%
CC(C)CN1CCCN(Cc2cccc(NC(=O)c3ccc(Cl)c(Cl)c3)c2)CC1 | 2.03%
COc1ccc2nccc([C@@H](O)CN3C4CCC3CC(NCc3ccc5c(n3)NC(=O)CS5)C4)c2n1 (some centres not stated) | 2.86%
Cc1ccc(Nc2nc(N/N=C/c3cc4c(cc3Br)OCO4)nc(Nc3ccc([N+](=O)[O-])cc3)n2)cc1C | 2.29%
